From PMC4336329 (PLoS ONE, 2015)
Among all 310,000 compounds or so, about 2,200 (0.71%) showed an effect of 50% or more. Effects have a minus sign here. The list shows a part of the results.

These compounds were tested against human ether-à-go-go-related gene (hERG) potassium channel (human, UniProt Q12809) (assay: primary screen, population patch clamp on CHO cells stably expressing hERG).
Sequence of human ether-à-go-go-related gene (hERG) potassium channel (Q12809 whole entry, looked up): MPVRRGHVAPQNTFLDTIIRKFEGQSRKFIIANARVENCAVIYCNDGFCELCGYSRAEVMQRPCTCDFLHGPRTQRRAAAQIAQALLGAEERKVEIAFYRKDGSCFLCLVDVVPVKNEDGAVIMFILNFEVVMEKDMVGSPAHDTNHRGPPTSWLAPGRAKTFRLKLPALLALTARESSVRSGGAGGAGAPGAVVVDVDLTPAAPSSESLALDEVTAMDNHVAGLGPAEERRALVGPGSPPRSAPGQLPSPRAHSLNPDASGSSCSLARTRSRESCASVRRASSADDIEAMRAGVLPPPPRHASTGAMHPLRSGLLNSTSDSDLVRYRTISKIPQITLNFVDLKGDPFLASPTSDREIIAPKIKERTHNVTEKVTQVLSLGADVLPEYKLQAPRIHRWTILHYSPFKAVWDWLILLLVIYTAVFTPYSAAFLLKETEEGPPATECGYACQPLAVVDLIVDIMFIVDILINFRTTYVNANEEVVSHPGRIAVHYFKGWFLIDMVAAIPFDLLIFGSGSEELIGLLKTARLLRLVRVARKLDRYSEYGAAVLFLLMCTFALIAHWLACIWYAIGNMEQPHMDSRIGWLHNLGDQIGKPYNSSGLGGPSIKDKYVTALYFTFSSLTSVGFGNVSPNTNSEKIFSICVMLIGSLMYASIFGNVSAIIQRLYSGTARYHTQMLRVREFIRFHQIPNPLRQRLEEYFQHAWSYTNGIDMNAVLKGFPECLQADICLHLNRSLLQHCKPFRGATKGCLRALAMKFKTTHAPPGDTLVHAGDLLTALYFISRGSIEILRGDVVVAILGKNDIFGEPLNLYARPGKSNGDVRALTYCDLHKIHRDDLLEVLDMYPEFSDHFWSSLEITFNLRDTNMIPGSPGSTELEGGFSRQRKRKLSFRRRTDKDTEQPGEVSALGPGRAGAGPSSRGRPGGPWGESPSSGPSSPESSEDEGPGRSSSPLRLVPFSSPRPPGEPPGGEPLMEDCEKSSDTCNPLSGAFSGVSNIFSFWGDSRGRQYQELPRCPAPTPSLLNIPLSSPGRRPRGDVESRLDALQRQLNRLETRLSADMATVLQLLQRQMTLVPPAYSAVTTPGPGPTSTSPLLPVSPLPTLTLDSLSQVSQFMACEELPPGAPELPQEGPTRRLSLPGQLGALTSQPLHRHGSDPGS

| SMILES | hERG current change (%, negative = inhibition) at 1uM [%] |
| --- | --- |
| Cc1ccc(N2CCN(CC(O)COc3ccccc3)CC2)cc1 (centres unmarked) | -24.2 |
| O=c1c(C(c2c(O)nc3n(c2=O)CCS3)c2cccc3ccccc23)c(O)nc2n1CCS2 | 0.976 |
| O=C(CSc1ccc(-c2ccncc2)nn1)N1CCN(c2ccccc2)CC1 | 4.87 |
| O=C(c1cc(Br)ccc1Cl)N1CCN(c2ccccn2)CC1 | 13 |
| CS/C(=N\S(=O)(=O)c1cccs1)Nc1ccc(F)c(Cl)c1 | 9.97 |
| CCc1cc(C(=O)Nc2nnc(C3CC3)s2)sc1C | 13.3 |
| Cc1c(C)c2cc(Cl)c(OCc3nn[nH]n3)cc2oc1=O | 8.06 |
| Cc1ccc(CNC(=O)/C=C/c2ccccc2Cl)cc1 | 13.8 |
| Cc1cccc(NC(=O)c2cccc(S(=O)(=O)N3CCCCC3)c2)c1 | 6.91 |
| COCc1c(C(=O)NC(C)c2ccc(S(N)(=O)=O)cc2)oc2ccccc12 (centres unmarked) | 15.2 |
| CCOC(=O)c1c(NC(=O)COc2cccc3c2CCN(C)C3=O)sc2c1CCC2 | 5.17 |
| CC1CCC(NC(=O)CCCCn2c(=O)[nH]c3ccsc3c2=O)CC1 (centres unmarked) | 19.8 |
| COc1ccccc1NC(=O)NCCc1c[nH]c2ccccc12 | 11.3 |
| c1ccc(Sc2ncnc3c2oc2ccccc23)nc1 | 8.05 |
| C/C(=N\NC(=O)c1ccc2ccccc2c1)c1cccnc1 | 15.8 |
| COc1cccc(NC(=O)CSc2nc3c(oc4ccccc43)c(=O)[nH]2)c1 | 6.26 |
| COc1cccc(NC(=O)CSc2nnc(-c3ccco3)c(-c3ccco3)n2)c1 | 3.02 |
| Cc1ccc(Nc2nnc(-c3ccc4c(c3)OCO4)o2)c(C)c1 | 16.4 |
| O=C(NCc1ccccc1)c1ccc(F)c(S(=O)(=O)N2CCOCC2)c1 | -0.874 |
| C=CCOc1ccc2ccccc2c1CNc1ncn[nH]1 | -11.2 |
| Cc1occc1-c1nnc(SCC(=O)Nc2nc(-c3ccccc3)cs2)o1 | -0.756 |
| O=C(O)c1c[nH]c2ccc(S(=O)(=O)N3CCOCC3)cc12 | 10.8 |
| Cc1ccc(C(=O)N2NC(c3ccc(F)cc3)C3C(=O)N(c4ccc(C)cc4)C(=O)C32)cc1 (centres unmarked) | 6.46 |

| SMILES | hERG current change (%, negative = inhibition) at 1uM [%] |
| --- | --- |
| Cc1ccc(SCCC(=O)NC(C)C)cc1 | 20.3 |
| O=C(COc1ccc(C(=O)NCC2CCCO2)cc1)Nc1cccc(C(F)(F)F)c1 (centres unmarked) | 7.2 |
| COC(=O)C1=NN(c2ccccc2OC)C2C(=O)N(c3ccccc3OC)C(=O)C12 (centres unmarked) | 10.8 |
| CCN(CC)c1ccc(/C=N/NC(=S)NCc2ccco2)cc1 | 6.9 |
| COc1ccc(CCNC(=O)c2ccc(CNc3c(N4CCOCC4)c(=O)c3=O)cc2)cc1OC | 7.64 |
| CC(CN(C)Cc1ccccc1)OC(=O)c1ccc2c(c1)OCCO2.Cl (centres unmarked) | 24.4 |
| Cc1nn(C)c(C(=O)Nc2ccc(Cl)c([N+](=O)[O-])c2)c1Cl | 8.62 |
| O=C(c1cccs1)N1CCCN(c2ncnc3scc(-c4ccccc4)c23)CC1 | 6.79 |
| COc1ccccc1N1CCN(C2CCCN(C(=O)CCc3cnn(C)c3)C2)CC1 (centres unmarked) | 5.08 |
| O=C(CSc1nnc2ccc(-c3ccncc3)nn12)N1CCCCC1 | 4.66 |
| Cc1ccc(NC(=O)CCN2C(=O)c3ccccc3C2=O)cc1C | 8.32 |
| COc1ccc(-c2nnc(NC(=O)C3CC3)o2)cc1 | 11.4 |
| COc1ccc(-c2ccc3c(N)c(C(=O)NC(C)C)sc3n2)cc1OC | 12.5 |
| Cc1nn(Cc2ccc(Cl)cc2Cl)c(Cl)c1C(=O)O | 4.01 |
| COCCNC(=S)N1CCC(c2nc(-c3ccc(N(C)C)cc3)no2)CC1 | 3.53 |
| CCOC(=O)c1cc2c(ccn2C)n1CC(=O)Nc1ccc(F)cc1 | 11.9 |
| CCC(C)[C@H](NC(=O)NCc1ccccc1Cl)C(=O)OC (some centres unmarked) | 13.7 |
| CCN(CC)CCNC(=O)CSc1c2c(nc3cc(Cl)ccc13)CCCC2 | -25.6 |
| O=C(CSc1nc(O)cc(=O)n1-c1ccccc1)c1ccc(Br)cc1 | 10 |
| Cc1ccc(NC(=O)NCc2nc3ccccc3n2C)cc1 | 14.9 |
| CCOC(=O)N1CCC(N2Cc3cccc(C(=O)NCc4ccc(OC)cc4)c3C2=O)CC1 | 2.82 |
| Cl.OCCNCc1cc(Br)ccc1OCc1ccccc1 | -21.3 |
| CCOCCn1c(-c2ccc(OC)cc2)nc2ccccc21 | 3.89 |

| SMILES | hERG current change (%, negative = inhibition) at 1uM [%] |
| --- | --- |
| CC(C)CCSc1nnc(Cn2c(=O)sc3ccccc32)n1C | 5.19 |
| NS(=O)(=O)c1cccc(NC(=O)COC(=O)CCN2C(=O)c3ccccc3C2=O)c1 | 9.47 |
| O=[N+]([O-])c1ccc(-c2ccc(/C=N/c3c(-c4ccco4)nc4ccccn34)o2)cc1 | 10.6 |
| Cc1cccnc1Nc1nc(-c2ccccn2)cs1 | 8.95 |
| O=C(NCCCN1CCOCC1)c1cccc(S(=O)(=O)Nc2ccc(F)cc2)c1 | 3.56 |
| COc1ccc(NC(=O)CSc2nnc(CCC(=O)Nc3ccc(C)c(Cl)c3)n2C)cc1 | 6.72 |
| CC(=O)c1c(C)[nH]c(C(=O)OCC(=O)Nc2cc(C(F)(F)F)ccc2N2CCOCC2)c1C | 4.06 |
| Cc1cn2c(-c3ccncc3)nnc2s1 | 8.59 |
| c1ccc(COc2cncc(-c3cccnc3)c2)cc1 | 1.76 |
| CC(=O)Nc1ccc(S(=O)(=O)N2CCC(C(=O)NCCC(=O)NCc3ccncc3)CC2)cc1 | 8.93 |
| CC(=O)Nc1ccc(S[C@@H](CCN2CC[C@H](O)CCC2=O)c2ccccc2)cc1 | 19.4 |
| CC1CCCC(C)N1C(=O)CSc1nc2ccccc2c(=O)[nH]1 (centres unmarked) | 17.9 |
| Cc1ccc(Cn2c(C(C)Nc3nc(-c4ccc(Cl)cc4)cs3)nc3cc(C(=O)NCCCO)ccc32)cc1 (centres unmarked) | 20.7 |
| Cc1c(N(C)C(=O)COc2ccc3ccccc3c2)c(=O)n(-c2ccccc2)n1C | 7.86 |
| Clc1ccc(N2CCOCC2)nn1 | 13.4 |
| O=C(CCn1cccc1)Nc1ccc(OC(F)(F)F)cc1 | 17.4 |
| CCOc1ccc(OCC)c(NS(=O)(=O)c2cccc3nsnc23)c1 | 4.02 |
| CCN(CC)CCCN(Cc1cc2cc3c(cc2[nH]c1=O)OCO3)C(=S)NCCOC | 7.06 |
| Cc1cc2nsnc2c(S(=O)(=O)N2CCN(C)CC2)c1C | 12 |
| COc1ccccc1OCCNC(=O)Nc1ccc(Br)cc1 | 7.49 |
| CCOc1ccc(NC(=S)NC23CN4CN(CN(C4)C2)C3)cc1 | 17.4 |
| COc1ccc(CN2CCC(=O)N([C@H](CO)c3ccccc3)CC2)cc1OC | 11.2 |
| CC(C)(C)c1ccc(Oc2cccc(C3CC(=O)C(C4NCCc5ccccc54)C(=O)C3n3cncn3)c2)cc1 (centres unmarked) | 9.94 |

| SMILES | hERG current change (%, negative = inhibition) at 1uM [%] |
| --- | --- |
| O=C(Nc1ccccc1)[C@@H]1CC=C[C@@H]2CCN(Cc3ccc(Cl)c(Cl)c3)C(=O)[C@@H]21 | 8.61 |
| CCN(CC)c1ccc(N=Cc2c(O)n(-c3ccc(Cl)cc3)c(=O)[nH]c2=O)cc1 | 18.3 |
| O=C1/C(=C/c2ccccn2)SC(=S)N1CCc1ccccc1 | 9.02 |
| Nc1c(C(=O)N/N=C/c2ccc([N+](=O)[O-])cc2)cnn1-c1ccccc1 | 9.95 |
| Cc1cccc(CSc2ncc(CO)n2C)c1 | 6.66 |
| CCCOC(=O)c1c(NC(=O)CCCn2nc([N+](=O)[O-])cc2C)sc(C(=O)OC)c1C | 13.2 |
| COc1cc2c(cc1OC)C(CCc1ccccc1)=NCC2 | -7.68 |
| O=C1COc2ccc(C(=O)COC(=O)Cc3ccccc3F)cc2N1 | 0.851 |
| Cc1ccc(CCNC(=O)CNC(=S)N(Cc2ccccc2)Cc2cccnc2)cc1 | -30.1 |
| CC(C)CCNC(=O)COc1ccc(N(C)S(=O)(=O)c2ccc(F)cc2)cc1 | -2.41 |
| Cc1cc(O)c(Sc2ncn[nH]2)cc1NS(=O)(=O)c1ccc(Cl)cc1 | 9.19 |
| C#CC(CC)(CC)NC(=O)c1ccc(Br)s1 | 5.87 |
| COc1cc(S(=O)(=O)N(Cc2cccs2)C2CC2)ccc1-n1cnnn1 | 7.06 |
| Cc1cccc(CCNC(=O)CC2C(=O)NCCN2CC2CCCCC2)n1 (centres unmarked) | 17.4 |
| Cc1cc(N/N=C/c2ccccc2O)c2ccccc2n1 | -3.6 |
| COCCCN(C(=O)CCOc1ccc(C(C)(C)C)cc1)c1c(N)n(Cc2ccccc2)c(=O)[nH]c1=O | 0.637 |
| CSCC(=O)N1CCC(n2nccc2NC(=O)c2ccc3c(c2)OCO3)CC1 | 0.299 |
| COc1cccc(OCCn2ccnc2)c1 | 4.11 |
| Cn1nc(C(=O)NC2CCCc3ccccc32)ccc1=O (centres unmarked) | 15.7 |
| CN(C)S(=O)(=O)c1ccc2oc(SCC(N)=O)nc2c1 | 11 |
